Experimental findings from article PMC5836133 are described below.

The other results are listed elsewhere or left out. At the low end of the ranking the order means little.

This experiment concerns T1, GST-NbGlk1(82-244).
T1 sequence: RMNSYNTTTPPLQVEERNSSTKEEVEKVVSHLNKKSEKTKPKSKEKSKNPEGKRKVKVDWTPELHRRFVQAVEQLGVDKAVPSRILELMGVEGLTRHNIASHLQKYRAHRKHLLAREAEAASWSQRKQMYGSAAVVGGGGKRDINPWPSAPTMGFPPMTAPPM
As to the kind of experiment: protein-binding microarray.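 Also: rank-based score ranging −0.5 to +0.5 with E above 0.45 taken as significant binding.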 The settings on record: NbGlk1 is a Golden2-like transcription factor of Nicotiana benthamiana; high values mean tight binding; most listed sequences are background and not binding sites; double strand, one strand shown.
Turning to ATATTTCA, the binding signal is 0.302 E-score.
Turning to AGCGAAAC, the binding signal is -0.0203 E-score.
For the sequence CACCAGCC, the binding signal is -0.101 E-score.
Consider AAAAGTCA, for which the binding signal was -0.167 E-score.
AGACCCCC gave a binding signal of -0.39 E-score.
For AGCAAAGC, the binding signal is -0.124 E-score.
On to ACCCGTGG, for which the binding signal was -0.197 E-score.
Then AATGCAGA, with 0.0978 E-score; and AAGCGGGG, with 0.0556 E-score; and ACGTAACA, with 0.0889 E-score.
Then AGGTAGGC, with -0.266 E-score.
Sequence ACATCCGC showed a binding signal of 0.00512 E-score.
Then CAACGATC, with 0.137 E-score; and AGCAGACC, with -0.152 E-score.
AAGGCTAA registered a binding signal of -0.12 E-score.
In the case of ACATCCCC, the binding signal is -0.192 E-score.
CACTTTCC showed a binding signal of -0.00426 E-score.
ATCACACA gave a binding signal of 0.274 E-score.
With ACAAACCT the figure was -0.0659 E-score; with AAGTGCCG, -0.0506 E-score; with AGGAAGTG, 0.0256 E-score.
With AAGCGTGA, the binding signal is -0.072 E-score.
With CACTAATC the figure was 0.0782 E-score; with AAGCACGA, -0.00998 E-score; with ACCATGGA, -0.149 E-score.
AGCCTCAA: the binding signal is -0.0728 E-score.
The sequence ACCTTCGT registered a binding signal of -0.256 E-score.
AGTTCTAA showed a binding signal of 0.02 E-score.
With AATAGAGC the figure was 0.000501 E-score.
Then ACGCGGTC, with -0.25 E-score.
On to CACGCTGC, for which the binding signal was -0.103 E-score.
Then AAGCTCAC, with -0.214 E-score; and ACTTTCAC, with -0.0688 E-score.
The sequence ACACTAAC came in with a binding signal of -0.0362 E-score.
Take AATTCTTC: the binding signal is 0.128 E-score.
With ATGGGATC the figure was 0.191 E-score; with ATGCTCAC, -0.064 E-score.
For AGGACACT, the binding signal is -0.142 E-score.
Take CAATGCTC: the binding signal was -0.242 E-score.
On to ACCGTGGC, for which the binding signal was -0.316 E-score.
Regarding ACAGTGTC, the binding signal was -0.154 E-score.
With AGACCCTC the figure was -0.276 E-score; with AGAGATAC, 0.222 E-score; with CACCCATA, 0.0776 E-score.
In turn, AGACACAA had a binding signal of -0.0017 E-score.
Sequence AGTCGGCC had a binding signal of -0.199 E-score.
For ATCCTCAT, the binding signal came to 0.212 E-score.
Then AACTCGCA, with 0.0485 E-score; and CACTGTAA, with 0.13 E-score; and ATGTCTCG, with -0.0633 E-score.
In turn, CACCTCAG showed a binding signal of -0.118 E-score.
Turning to AATTATGG, the binding signal was found to be 0.137 E-score.
With AAGTTGAG the figure was -0.0673 E-score.
ACTGGAAT came in with a binding signal of 0.256 E-score.
Consider ACTGCGCG, for which the binding signal is -0.0216 E-score.
Then AGTCCGAG, with -0.211 E-score; and CACAAACA, with 0.0675 E-score; and ACACCTTC, with -0.055 E-score.
AGAGATCA yielded a binding signal of 0.145 E-score.
With AAGGCAAC the figure was -0.117 E-score; with ACACGATA, 0.189 E-score.
Then AGACATTC, with -0.0859 E-score.
Then AGTTCGAT, with 0.0306 E-score; and ATATATGA, with 0.285 E-score.
Sequence AAGATTGG showed a binding signal of 0.206 E-score.
Then AATGTACT, with -0.0439 E-score; and AGACGAGA, with 0.132 E-score.
The sequence AGCTAGTA showed a binding signal of -0.0696 E-score.
ACGTCAGC registered a binding signal of -0.197 E-score.
Sequence AAGCGCCA displayed a binding signal of -0.233 E-score.
With ATGATTTG the figure was 0.257 E-score; with ACATTAAT, 0.0863 E-score.
Then ACGAGCTA, with -0.113 E-score; and AACGGTCG, with -0.174 E-score.
With CAGCAGGC the figure was -0.201 E-score.
As to AATCAGTG, the binding signal worked out at 0.266 E-score.
In turn, ATCCGTCC registered a binding signal of 0.0276 E-score.
With AGCGCTAT the figure was -0.094 E-score; with ACAGCAGC, -0.0694 E-score.
The sequence AGGGGCTG yielded a binding signal of -0.171 E-score.
With ACCCGTCC the figure was -0.218 E-score; with AGAACCGG, -0.226 E-score; with ACTTAACC, -0.0358 E-score.
With AACAACGA the figure was 0.063 E-score; with ACGCTTTC, -0.173 E-score; with ACTTTAAA, 0.0978 E-score.
Sequence AGTCGACT returned a binding signal of -0.153 E-score.
Then AAGCACTC, with -0.236 E-score.
Then AGGCATCG, with -0.113 E-score; and CAACCCTC, with -0.172 E-score.
Then AATCGAAT, with 0.318 E-score; and ATCGACTG, with 0.0842 E-score.
On to AAACGCTC, for which the binding signal was -0.0777 E-score.
With ATGGACAG the figure was -0.0969 E-score; with AAACCGAC, -0.115 E-score.
AAGCAGAG yielded a binding signal of -0.0914 E-score.
Then AGTGCGAC, with -0.0858 E-score; and ATGGGGTG, with 0.046 E-score.
With AGCGATTA the figure was 0.142 E-score; with AATTGCTG, -0.0811 E-score.
With AATACGGT the figure was 0.05 E-score; with AATTGACA, 0.0868 E-score.
In the case of ACGCATGA, the binding signal was -0.12 E-score.
As to ACTTTTTG, the binding signal was determined as 0.036 E-score.
Then AGGGCCTA, with -0.268 E-score.
Then AGGTTTAG, with -0.133 E-score; and AATCGCGC, with 0.311 E-score.
The sequence AAGCCGCT displayed a binding signal of -0.33 E-score.
With AAATATCA the figure was 0.367 E-score; with AGTGCACG, -0.18 E-score.
